# PubChem BioAssay AID2147 (National Center for Advancing Translational Sciences (NCATS), 2009)
# Where “and” joins values, the source holds several entries; their conditions need not be identical. Equal values may be shown once. The whole screen tested about 230,000 compounds, of which about 3,600 (1.6%) were called active. This list was built around the results that the source calls inconclusive (neither active nor inactive); the mix of calls is not that of the screen. The call rests on the fitted dose curve; in most records, active means well fitted inhibition curve with a large enough effect (not every such curve was filed as active); inconclusive means small, poorly fitted or top-dose-only effect, or another doubt; inactive means no such curve, though single readings can be large or run the other way. Potencies of inconclusive entries are doubtful fits and often do not repeat.
# Molecular target: Lysine-specific demethylase 4E (Homo sapiens) (UniProt B2RXH2)
# Assay: qHTS Assay for Inhibitors of Human Jumonji Domain Containing 2E (JMJD2E)
# Conditions: JMJD2E catalytic domain, FDH-coupled NADH fluorescence (FDH is formaldehyde dehydrogenase); series mostly up to 57.1 µM; activity change, negative = inhibition: at the top concentration
# Further: nearly all actives have a fitted effect of over 50% in size.
# Potency means the concentration at half of the fitted maximal effect; tags describe the fitted curve by direction and shape.
# 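Wherever activity change, negative = inhibition is given: 0% = wells with enzyme and -100% = buffer wells without enzyme.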
# Sequence of UniProt B2RXH2 (B2RXH2 whole entry, looked up, the tested form may be a part): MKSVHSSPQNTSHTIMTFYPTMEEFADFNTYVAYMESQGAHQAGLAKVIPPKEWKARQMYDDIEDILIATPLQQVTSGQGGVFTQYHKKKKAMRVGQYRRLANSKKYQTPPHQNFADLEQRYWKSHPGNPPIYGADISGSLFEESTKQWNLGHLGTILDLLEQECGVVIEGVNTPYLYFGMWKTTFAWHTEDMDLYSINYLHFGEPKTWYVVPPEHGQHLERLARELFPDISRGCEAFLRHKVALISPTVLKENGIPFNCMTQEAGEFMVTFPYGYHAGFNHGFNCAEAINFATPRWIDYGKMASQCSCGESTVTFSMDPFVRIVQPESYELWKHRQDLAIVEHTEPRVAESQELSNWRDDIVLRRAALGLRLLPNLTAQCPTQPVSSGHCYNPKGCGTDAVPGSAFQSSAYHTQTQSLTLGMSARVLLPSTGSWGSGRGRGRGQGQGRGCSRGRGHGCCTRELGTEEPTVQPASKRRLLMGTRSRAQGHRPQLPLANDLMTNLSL
SMILES,Potency,"activity change, negative = inhibition"
Cc1ncc(C(=O)O)c(C(=O)O)c1N,"inconclusive: 28.2 µM [inhibitor, partial curve]",
O=S(=O)(CCc1ccncc1)Cc1ccc2c3c(cccc13)CC2,"inconclusive: 35.5 µM [inhibitor, single point]",
O=S(=O)(Cc1ccc(Cl)cc1)c1ccccc1-c1nnc(-c2ccc(Cl)cc2)o1,"inconclusive: 28.2 µM [inhibitor, partial curve]",
CC1CCN(c2oc(-c3cccc4ccccc34)nc2C#N)CC1,"inconclusive: 28.2 µM [inhibitor, partial curve]",
COCCN1C(=O)N[C@@H](c2cccs2)C(C(C)=O)=C1C,,inactive: 0.53% [at 11.4 µM]
CCCCOc1ccc(C(=O)Nc2cc(C)c(OCC(=O)N3CCOCC3)c(C)c2)cc1,,inactive: 7.44%
c1ccc(N2CCN(Cc3ccnc4ccccc34)CC2)cc1,"inconclusive: 39.8 µM [inhibitor, single point]",
COc1ccc(NC(=S)Nc2ccc3nsnc3c2)cc1,,inactive: 3.23%
Cc1cc(C)c(-c2cc(C)nc3ncnn23)c(C)c1,"inconclusive: 3.98 µM [inhibitor, full curve]",
O=C(NCCCn1ccnc1)c1nn2c(C(F)(F)F)cc(-c3ccc(Br)cc3)nc2c1Cl,,inactive: -1.19%
COCCNC(=O)c1c(N)n(-c2cccc(C)c2)c2nc3ccccc3nc12,"inconclusive: 11.2 µM [inhibitor, partial curve]",
O=C(Nc1ccccc1C(=O)NC(Cc1ccccc1)C(=O)NC1CCCCC1)c1ccccc1 (configuration not stated),"inconclusive: 25.1 µM [inhibitor, partial curve]",
Cn1c2ccc(F)cc2c2ncn(CCCN(CCO)CCO)c(=O)c21,"inconclusive: 22.4 µM [inhibitor, partial curve]",
O=C(O)CCc1ccc(-c2cccs2)n1CCc1ccccc1,"inconclusive: 31.6 µM [inhibitor, partial curve]",
O=C(NNc1cccc(Cl)n1)c1ccccc1CC[N+](=O)[O-],"inconclusive: 39.8 µM [inhibitor, single point]",
COc1ccc(CNC(=O)COC(=O)c2cc(-c3cccs3)nc3ccccc23)cc1OC,"inconclusive: 35.5 µM [inhibitor, single point]",
CC(C(=O)NC1CCCC1)N(Cc1ccc2c(c1)OCO2)C(=O)c1snc(C(N)=O)c1N (configuration not stated),"inconclusive: 31.6 µM [inhibitor, partial curve]",
CC(=O)c1ccc(N2CCN(C(=O)CCCn3c(=O)[nH]c4ccc(Br)cc4c3=O)CC2)cc1,"inconclusive: 35.5 µM [inhibitor, single point]",
COc1ccc(-n2c(SCCC#N)nnc2-c2cc(Cl)ccc2OC)cc1Cl,,inactive: -21.5%
O=C(CC1C(=O)NCCN1Cc1ccc(F)c(F)c1)NCCCn1ccnc1 (configuration not stated),"inconclusive: 39.8 µM [inhibitor, single point]",
Cc1[nH]c2ccccc2c1/C=N/NC(=O)c1cc(-c2cccs2)[nH]n1,"inconclusive: 22.4 µM [inhibitor, partial curve]",
COc1cccc(C2C(C(N)=O)=C(C)Nc3nc(-c4ccccc4Cl)nn32)c1 (configuration not stated),"inconclusive: 35.5 µM [inhibitor, single point]",
CCCCCCn1c(SCCOC)nc2c1c(=O)[nH]c(=O)n2C,,inactive: 8.07%

SMILES,Potency,"activity change, negative = inhibition"
CCOC(=O)C1=C(C)NC2=C(C(=O)CC(C)(C)C2)C1c1ccsc1 (configuration not stated),"inconclusive: 28.2 µM [inhibitor, partial curve]",
O=C1c2ccccc2NC(c2ccccc2)N1Cc1ccco1 (configuration not stated),"inconclusive: 14.1 µM [inhibitor, partial curve]",
NC(=O)c1ccccc1NC(=O)Nc1cccc2ccccc12,"inconclusive: 31.6 µM [inhibitor, single point]",
CC(=O)N(CN1C(=O)c2ccccc2C1=O)c1cccc(C)c1,,inactive: 0.138%
CNC[C@H](O)c1ccc(O)c(O)c1,active: 14.1 µM and active: 7.08 µM and active: 15.8 µM,
CNC(=O)c1cc2c(=O)n3cc(C)ccc3nc2n(C(C)C)c1=N,"inconclusive: 7.08 µM [inhibitor, partial curve]",
COC(=O)c1ccccc1SC1CC(=O)N(c2cccc(C)c2)C1=O (configuration not stated),"inconclusive: 39.8 µM [inhibitor, single point]",
Cc1sc2nc(SCC(=O)O)[nH]c(=O)c2c1C,"inconclusive: 35.5 µM [inhibitor, single point]",
COc1ccc(Cc2n[nH]c(=S)n2Cc2ccccc2)cc1Cl,,inactive: 0.29%
CCc1ccc(N2CC(C(=O)N/N=C/c3cc([N+](=O)[O-])ccc3O)CC2=O)cc1 (configuration not stated),"inconclusive: 28.2 µM [inhibitor, single point]",
CN(C)Cc1c(-c2ccc(Cl)cc2)nc2ccccn12,"inconclusive: 31.6 µM [inhibitor, partial curve]",
CCCc1nc2oc(C(=O)c3ccccc3)c(N)c2c2c1COC(C)(C)C2,"inconclusive: 31.6 µM [inhibitor, single point]",
CSc1nnc(-c2sc3cc(C(F)(F)F)cnc3c2-c2ccccn2)n1C,"inconclusive: 25.1 µM [inhibitor, partial curve]",
Nc1c(C(=O)NCCC2=CCCCC2)sc2ccc(S(=O)(=O)N3CCCCC3)cc12,"inconclusive: 35.5 µM [inhibitor, single point]",
O=C(Nc1ccc2nc(-c3ccco3)c(-c3ccco3)nc2c1)N1CCN(c2ccccn2)CC1,,inactive: 5.1%
CCOC(=O)c1cc(-c2ccc(OC(F)F)cc2)nc2nc(SC)[nH]c(=O)c12,"inconclusive: 14.1 µM [inhibitor, partial curve]",
CCOC(=O)C1=C(C)NC2=C(C(=O)CC(C)(C)C2)C1c1ccc2c(c1)CCCN2C (configuration not stated),"inconclusive: 28.2 µM [inhibitor, single point]",
O=C(NCc1ccc2c(c1)OCO2)c1ccc(Cl)s1,"inconclusive: 0.0056 µM [inhibitor, full curve, poor fit]",
CCOC(=O)c1c(N)sc2c1C1CCN2CC1,,inactive: -5.7%
COc1ccc(-c2cc(=O)n(-c3ccc([N+](=O)[O-])cc3)[nH]2)cc1,"inconclusive: 28.2 µM [inhibitor, single point]",
Cn1c(-c2sccc2OCc2cccc(C(F)(F)F)c2)n[nH]c1=S,"inconclusive: 35.5 µM [inhibitor, single point]",
CCN1CCN(C(=O)/C=C/c2ccc3c(c2)OCO3)CC1,"inconclusive: 31.6 µM [inhibitor, partial curve]",
Cc1ccc(-n2c(O)c(/C=N/Nc3ccc(S(=O)(=O)N4CCOCC4)cc3[N+](=O)[O-])c3ccccc3c2=O)c(C)c1,"inconclusive: 35.5 µM [inhibitor, single point]",

SMILES,Potency,"activity change, negative = inhibition"
O=C1c2oc3ccc(Cl)cc3c(=O)c2C(c2cccnc2)N1Cc1ccco1 (configuration not stated),,inactive: 7.83%
COc1ccc(-c2nnc(NC(=O)C3CCCO3)s2)cc1 (configuration not stated),"inconclusive: 28.2 µM [inhibitor, partial curve]",
C=C1C(=O)C=C2CN(C(=O)c3ccccc3)[C@@](Cc3ccc(OC)cc3)(C(=O)OC)[C@@H]12,"inconclusive: 35.5 µM [inhibitor, single point]",
Cc1cccc(C(=O)O/N=C(\N)c2cccc([N+](=O)[O-])c2)c1,,inactive: -2.82%
O=C(NNC(=O)C1CCCN(c2ncccn2)C1)c1ccc(F)cc1 (configuration not stated),"inconclusive: 28.2 µM [inhibitor, single point]",
C[N+]1(C2CCC3CCCC2C3O)CCCCC1 (configuration not stated),"inconclusive: 6.31 µM [inhibitor, single point]",
Cc1ccc(Sc2cc(Cl)nc(N)n2)cc1,,inactive: 8.14%
O=C(NCCCO)C(=O)NCc1ccncc1,,inactive: 9.85%
CN1C(=O)NC(c2ccccc2)C2=C1CN(c1cccc(C(F)(F)F)c1)C2=O (configuration not stated),"inconclusive: 28.2 µM [inhibitor, partial curve]",
Cc1c2c(nc3ccccc13)CCC(C(C)(C)C)C2 (configuration not stated),,inactive: -1.28%
CC(C)CNC(=O)c1c2c(nc3ccccc13)-c1ccccc1CC2,"inconclusive: 31.6 µM [inhibitor, partial curve]",
COc1ccc(-c2c3c(=O)n(C)c(=O)n(C)c3cn2-c2cc(OC)ccc2OC)cc1,"inconclusive: 25.1 µM [inhibitor, partial curve]",
O=C(O)CC/C(=C\c1cc([N+](=O)[O-])ccc1Cl)c1nc2ccccc2s1,,inactive: -3.37%
CCOC(=O)C1CCN(C(=O)Nc2cc(Cl)cc(Cl)c2)CC1,,inactive: 8.5%
COC(=O)[C@@H]1[C@@H]2C[C@H]3c4[nH]c5ccccc5c4CCN3C[C@@H]2CC[C@@H]1O,"inconclusive: 14.1 µM [inhibitor, single point] and inconclusive: 22.4 µM [inhibitor, partial curve]",
CCn1cc(C(=O)O)c(=O)c2cc(F)c(N3CCN(C(=S)Nc4ccc(OC)cc4)CC3)cc21,"inconclusive: 8.91 µM [inhibitor, partial curve]",
CCOc1cccc(-c2nnc(SCC(=O)Nc3cc(OC)cc(OC)c3)n2N)c1,,inactive: 2.35%
CCN1CCN(c2cc(C)c3cc(NC(=S)N4CCN(c5ccccc5)CC4)ccc3n2)CC1,"inconclusive: 31.6 µM [inhibitor, partial curve]",
COc1ccccc1/C=N/Nc1cc(N(C)C)nc(N(C)C)n1,"inconclusive: 0.355 µM [inhibitor, full curve, poor fit]",
Cc1cc(N=Nc2ccc(Cl)cc2)cc(CN2CCOCC2)c1O,,inactive: -11.5%
FC(F)Oc1ccc(/C=N/c2c(-c3ccc(OC(F)F)cc3)nc3n2CCS3)cc1,,inactive: 4.63%
